# Data as given in the supplement of paper PMC3334620.
# Whole data set: some 33,000 sequences, median “E-score (-0.5 to 0.5)” near -0.054, cut for the highest 2% near 0.39. The list shows a part of the results.
# Target: Ylr278c (UniProt Q05854)
# Test: PBM E-score (8-mer binding enrichment) (E-score (-0.5 to 0.5)); higher = stronger / more preferred TF binding; most listed sequences are background and not binding sites
# Settings: protein concentration: 200 nM; construct: GST-DNA-binding domain
# How it was run: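 Full-length yeast transcription factors or their DNA-binding domains, GST-tagged and expressed with PURExpress, were applied at about 100-200 nM to universal all-10-mer Agilent arrays. These arrays had been made double-stranded by primer extension on fresh or once-stripped slides. Detection used fluorescent anti-GST, normalisation used masliner, and E-scores for ungapped eight-base words pooled with reverse complements came from the Universal PBM Analysis Suite.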
row,Sequence,PBM E-score
1,CTTAAAGC,0.00637
2,CCACTGGA,-0.0942
3,ATCCTGAG,-0.166
4,CCTCAACA,-0.0486
5,CGCTCAAG,0.0706
6,TCCCAACA,-0.0167
7,CGAAGCAA,-0.131
8,ACCCAGTC,-0.0927
9,CACACTGC,0.0437
10,CAGTTCCA,-0.116
11,AGTCCTAT,-0.0902
12,CGAACCAA,0.0389
13,AAAGTTCG,0.118
14,GGACTTAA,0.27
15,AAAATCAC,0.00397
16,CCCGCGAG,0.309
17,AAGGTGAA,0.00686
18,AGTCAAGA,-0.234
19,ATTTGCTA,-0.111
20,AAAATTTT,0.084
21,AACCGTAG,-0.146
22,GTAGAAAC,-0.0106
23,CGAAAAAA,0.194
24,ATCCCAGC,-0.138
25,CTTACCTC,-0.0434

row,Sequence,PBM E-score
1,ACGCTGCG,0.0169
2,AAGTAGTC,-0.167
3,CAAGGCCG,0.207
4,TCAGAGGA,-0.187
5,CGCTGCAG,0.0673
6,AGCCACTC,-0.2
7,GGCATAGA,0.0356
8,GATGTTAC,-0.116
9,CGTCCCTC,-0.143
10,CCGTTTCC,0.262
11,AAGTGGCT,-0.0911
12,GCAGACTA,-0.226
13,CATGTTCG,-0.154
14,GGGATGGA,0.102
15,TAACGTGA,-0.289
16,CCGAAAGC,0.258
17,CAAGCCGC,-0.0458
18,ATTGCATG,-0.0386
19,GCTTTGTA,-0.0887
20,CCCTGCCC,-0.205
21,AGTAAATG,0.0709
22,AACGATCC,-0.0549
23,ACTTTGAG,-0.274
24,ACGGTACA,-0.187
25,AATGGTCG,-0.0882

row,Sequence,PBM E-score
1,AAGGGGGT,-0.278
2,CAGTCCTC,-0.18
3,ATCCCGTC,0.231
4,TCATGAGA,-0.146
5,CAAAGGAG,-0.0784
6,CATGACGA,-0.0962
7,GACGGCCA,0.054
8,ATAAAGAG,-0.133
9,AAACGTGT,0.0136
10,CACTGATG,-0.18
11,GCGCCGTA,0.231
12,ACTTATAA,0.114
13,TCTGAGAA,-0.138
14,ATAAGTCA,-0.0695
15,CAAGCCCG,0.206
16,AGTAGCAG,-0.185
17,ATCGCGAG,0.0801
18,GAAGTTAC,0.0322
19,CCAATACA,-0.0933
20,GATTGTAC,-0.145
21,CACCATAA,-0.106
22,ATCATTCG,-0.0178
23,TACCAGCA,-0.0848
24,GGGAGCAC,0.0245
25,AGGTGTGG,-0.0626

row,Sequence,PBM E-score
1,ACCTGTGA,-0.0855
2,GTCTAGGA,-0.122
3,GTATTTTA,-0.066
4,AGATGGCG,0.0715
5,AGATACGG,0.167
6,TAAAGGGA,-0.0959
7,AAGTCCGA,0.483
8,GATATAGC,0.0728
9,CAATCGAA,-0.0353
10,CAAGCCCA,-0.357
11,GTTTCTCA,-0.153
12,TAGAGGCA,-0.256
13,CACCATCA,-0.0978
14,AAGCTGGA,-0.226
15,AACTGGTG,-0.292
16,ATCCAATG,-0.257
17,CTCATGGA,-0.172
18,GGGATGTA,0.0101
19,AAGAGACC,-0.0288
20,GTATTGAC,-0.259
21,ACGACCGA,-0.123
22,GGGGAAAC,0.314
23,GACACTCC,0.219
24,CCAGGAGC,-0.101
25,AAGAGCCA,-0.0202

row,Sequence,PBM E-score
1,GACACATC,-0.00964
2,CCTTTTAA,-0.113
3,CTGCGATA,-0.0748
4,AAGGGCAC,-0.175
5,GCATTGCA,-0.0506
6,CGGAGTCC,0.464
7,CGCGGCTA,0.232
8,ACTCATAA,-0.125
9,CTCTAAAG,-0.144
10,AGCTCATG,-0.248
11,ACGCAACC,0.0752
12,CTGACGCC,-0.0288
13,AAAGGTAG,-0.284
14,CTGCCCCC,-0.291
15,ACCACCTA,-0.0614
16,CACTGAAC,-0.177
17,ACGCGGTC,0.193
18,ATCCCTAG,-0.169
19,GCGATGGA,0.197
20,AGTATATA,0.134
21,CGCCCCAC,0.0716
22,AGGACTCC,0.0662
23,AGCTTGCC,-0.0638
24,AACGAGCC,-0.205
25,CCACTAGA,-0.197

row,Sequence,PBM E-score
1,CCCACGAG,-0.0542
2,ACGTGGAG,-0.149
3,AGACTGTC,-0.122
4,CCGGCTAC,0.309
5,ATGCCCTA,-0.141
6,CCTCTTCG,0.0015
7,CTTGCCTC,0.0426
8,CCAAATAG,-0.19
9,CATAAATA,-0.142
10,CGGTGTAC,0.19
11,CTGAAAAC,-0.0457
12,ATACTGAC,-0.0294
13,TCGAACGA,-0.141
14,GAGGTATC,0.0374
15,AGCTAGAG,-0.143
16,CGGCTTTC,0.326
17,ACCCCTCT,-0.0486
18,ACTCCTTC,-0.105
19,ACCGTGTG,0.0398
20,GAGGTCTA,-0.227
21,GTTAGGCA,-0.268
22,CGCAATCC,0.233
23,AATTACTC,0.0919
24,ACTGTCAG,-0.147
25,CGTTGGCA,-0.0492

row,Sequence,PBM E-score
1,AACATCGT,-0.124
2,GACCTCTC,0.119
3,CTCGGAAG,0.303
4,AACTACCG,0.221
5,CTAGAGAC,-0.258
6,GGGGTTGA,0.13
7,GATAAACC,0.133
8,CGGGTCGA,-0.00775
9,ACATGTGC,0.00577
10,ACGGATTG,0.185
11,GATGCTGC,-0.13
12,AAAGGGTG,-0.13
13,CCTACCGA,-0.0804
14,AACCAATG,-0.155
15,GCGTATGA,-0.146
16,AATTATAG,-0.08
17,AAGCCAAC,-0.131
18,AGGTAAGA,-0.135
19,CTAGCGAG,-0.301
20,ATCAACAT,-0.221
21,CCAGTCCC,-0.0319
22,TGCCTCCA,-0.353
